Measured values published in publication PMC9225989 (Signal Transduction and Targeted Therapy, 2022).
No constants are given. Whether binding was seen depends on the method and setting. Binding seen in cells or lysates may run through a third protein. Some results given as binding are weak or reduced against the parent protein; the word gives no strength. For part of these data: Sequences can lack the tags named with a protein. Blank lines part the entries; values can stand above or below the molecule they belong to.

Amino acid sequences for entries named in this document (tags omitted).
UniProt Q8R4B8: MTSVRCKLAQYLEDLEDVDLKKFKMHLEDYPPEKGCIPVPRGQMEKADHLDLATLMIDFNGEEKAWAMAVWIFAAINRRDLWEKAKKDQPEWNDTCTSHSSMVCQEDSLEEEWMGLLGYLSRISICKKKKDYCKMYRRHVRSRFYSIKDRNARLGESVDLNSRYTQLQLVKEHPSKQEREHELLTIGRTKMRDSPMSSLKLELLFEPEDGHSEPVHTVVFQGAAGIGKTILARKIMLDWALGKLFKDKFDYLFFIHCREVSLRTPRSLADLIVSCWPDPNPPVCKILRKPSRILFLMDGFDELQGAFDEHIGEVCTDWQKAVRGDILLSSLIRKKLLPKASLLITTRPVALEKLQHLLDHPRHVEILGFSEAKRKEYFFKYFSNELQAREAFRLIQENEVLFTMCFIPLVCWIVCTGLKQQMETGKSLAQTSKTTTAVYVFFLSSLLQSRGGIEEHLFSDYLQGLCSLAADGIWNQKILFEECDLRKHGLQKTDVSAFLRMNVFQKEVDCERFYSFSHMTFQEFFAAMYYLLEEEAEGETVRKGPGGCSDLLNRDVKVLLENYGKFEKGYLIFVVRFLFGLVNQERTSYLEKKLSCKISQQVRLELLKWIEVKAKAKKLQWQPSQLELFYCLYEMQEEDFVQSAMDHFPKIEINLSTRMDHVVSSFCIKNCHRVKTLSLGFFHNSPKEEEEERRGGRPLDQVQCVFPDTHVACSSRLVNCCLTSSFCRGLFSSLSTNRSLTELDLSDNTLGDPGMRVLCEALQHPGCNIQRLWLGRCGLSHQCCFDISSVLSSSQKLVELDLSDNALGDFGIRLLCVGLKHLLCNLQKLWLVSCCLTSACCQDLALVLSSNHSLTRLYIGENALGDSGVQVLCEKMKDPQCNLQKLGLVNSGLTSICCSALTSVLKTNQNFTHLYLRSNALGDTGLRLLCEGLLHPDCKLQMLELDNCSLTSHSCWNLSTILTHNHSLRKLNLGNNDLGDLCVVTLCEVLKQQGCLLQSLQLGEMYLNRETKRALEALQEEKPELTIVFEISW

Tests used:
[1] = molecular target: CB1R-Mutant 3 (CB1R-M3, Δ1-176), truncation of Flag-tagged CB1R (mouse) (UniProt P47746); experiment: co-IP; HEK293T cells transfected with CB1R-M3 or CB1R-M4 together with each of the recombinant pyroptosis plasmids
[2] = molecular target: CB1R-Mutant 4 (CB1R-M4, Δ1-209), truncation of Flag-tagged CB1R (mouse) (UniProt P47746); experiment: as above
[3] = molecular target: Myc-tagged NLRP3 (expressed in HL-1 cells) (UniProt Q8R4B8); experiment: co-IP; HL-1 cells co-transfected with the Flag-tagged Cb1r plasmid and one of the Myc-Nlrp3, His-Gsdmd, HA-Casp1 or GST-Asc plasmids; precipitation with anti-Flag antibody, and the reverse
[4] = molecular target: T1, His-tagged GSDMD (expressed in HL-1 cells) (UniProt Q9D8T2); experiment: as above
T1 sequence: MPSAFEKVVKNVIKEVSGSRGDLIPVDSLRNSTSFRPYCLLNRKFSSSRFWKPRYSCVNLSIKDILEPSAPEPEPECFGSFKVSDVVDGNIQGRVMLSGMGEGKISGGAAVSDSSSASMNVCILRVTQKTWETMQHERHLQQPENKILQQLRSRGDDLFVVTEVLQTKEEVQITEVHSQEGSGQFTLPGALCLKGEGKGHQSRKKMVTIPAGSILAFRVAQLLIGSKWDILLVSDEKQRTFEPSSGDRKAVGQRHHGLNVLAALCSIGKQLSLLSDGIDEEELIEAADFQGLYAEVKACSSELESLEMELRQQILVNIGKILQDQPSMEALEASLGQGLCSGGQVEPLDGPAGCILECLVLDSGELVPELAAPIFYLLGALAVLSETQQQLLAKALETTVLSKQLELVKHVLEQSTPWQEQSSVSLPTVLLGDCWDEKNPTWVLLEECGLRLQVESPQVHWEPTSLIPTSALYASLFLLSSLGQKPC

[5] = molecular target: T2, GST-tagged ASC (expressed in HL-1 cells) (UniProt Q9EPB4); experiment: as above
T2 sequence: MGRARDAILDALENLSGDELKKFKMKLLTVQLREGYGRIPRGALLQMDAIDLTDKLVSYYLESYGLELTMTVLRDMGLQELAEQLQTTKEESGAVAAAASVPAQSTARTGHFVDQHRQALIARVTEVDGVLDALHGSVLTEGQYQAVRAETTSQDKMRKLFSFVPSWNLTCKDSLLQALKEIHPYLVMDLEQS

[6] = molecular target: T3, HA-tagged Casp1 (expressed in HL-1 cells) (UniProt P29452); experiment: as above
T3 sequence: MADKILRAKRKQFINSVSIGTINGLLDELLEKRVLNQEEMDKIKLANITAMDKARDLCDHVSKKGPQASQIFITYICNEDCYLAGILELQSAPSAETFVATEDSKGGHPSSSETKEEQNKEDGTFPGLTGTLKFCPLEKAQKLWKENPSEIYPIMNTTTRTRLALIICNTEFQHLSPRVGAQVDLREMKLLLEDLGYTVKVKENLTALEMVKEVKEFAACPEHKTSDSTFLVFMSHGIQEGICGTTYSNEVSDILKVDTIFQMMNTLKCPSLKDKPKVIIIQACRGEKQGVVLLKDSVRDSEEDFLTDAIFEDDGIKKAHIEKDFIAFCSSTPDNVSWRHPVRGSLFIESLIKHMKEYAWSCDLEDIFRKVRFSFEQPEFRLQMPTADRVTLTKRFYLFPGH

[7] = molecular target: Flag-tagged CB1R, full length (CB1R-FL, 1-473 amino acids) (mouse) (UniProt P47746); experiment: as above

B1: His-tagged GSDMD (expressed in HEK293T cells) (protein, UniProt Q9D8T2 1-487)
chain: T1 sequence
binding [1]: binds | binding [2]: no binding

B2: His-tagged GSDMD (expressed in HL-1 cells) (protein, UniProt Q9D8T2 1-487)
chain: T1 sequence
binding [7]: binds

B3: HA-tagged Casp1 (expressed in HEK293T cells) (enzyme, UniProt P29452 1-402)
chain: T3 sequence
binding [1]: binds | binding [2]: no binding

Next, values leading:

binding [1]: binds | binding [2]: no binding
Molecule: Myc-tagged NLRP3 (expressed in HEK293T cells) (from UniProt Q8R4B8 1-1033)

binding [3]: binds | binding [4]: binds | binding [5]: no binding | binding [6]: binds
Molecule: Flag-tagged CB1R, full length (CB1R-FL, 1-473 amino acids) (from UniProt P47746 1-473) (receptor)

binding [7]: binds
B4: HA-tagged Casp1 (expressed in HL-1 cells) (enzyme, UniProt P29452 1-402)
chain: T3 sequence
